Assay [1] deals with KI-GAP80Ty (GAP80 Ty-tagged at the endogenous locus) (Toxoplasma gondii). Briefly: co-IP; [35S]-methionine/cysteine labelled tachyzoites lysed in CoIP buffer (1% Triton X-100, 50 mM Tris-HCl pH 8, 150 mM NaCl); tagged bait precipitated with monoclonal anti-Ty or anti-Myc and Protein A-Sepharose, 4 C; eluted proteins seen by autoradiography; also in MyoC-KO background and in GAP45-iKO +/- ATc.

Amino acid sequences for entries named in this document (tags omitted).
UniProt A0A125YP06: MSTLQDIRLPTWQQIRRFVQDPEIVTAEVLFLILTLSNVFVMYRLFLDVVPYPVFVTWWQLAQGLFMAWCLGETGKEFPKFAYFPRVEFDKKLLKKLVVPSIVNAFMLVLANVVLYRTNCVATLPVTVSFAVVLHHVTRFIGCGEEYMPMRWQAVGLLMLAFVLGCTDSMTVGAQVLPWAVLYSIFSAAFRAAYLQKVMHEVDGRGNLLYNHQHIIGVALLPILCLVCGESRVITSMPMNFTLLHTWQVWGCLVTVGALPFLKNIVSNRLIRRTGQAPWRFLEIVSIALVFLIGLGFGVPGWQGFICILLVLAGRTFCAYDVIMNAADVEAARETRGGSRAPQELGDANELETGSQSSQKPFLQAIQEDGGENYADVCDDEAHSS

For assay [2], the target named is MycGFPCtGAP80 (C-terminal domain of GAP80 fused to GFP) (Toxoplasma gondii). Described as above.
Assay [3] deals with T1, KI-GAP45Ty (GAP45 Ty-tagged at the endogenous locus) (Toxoplasma gondii) (UniProt Q7Z289).
T1 sequence: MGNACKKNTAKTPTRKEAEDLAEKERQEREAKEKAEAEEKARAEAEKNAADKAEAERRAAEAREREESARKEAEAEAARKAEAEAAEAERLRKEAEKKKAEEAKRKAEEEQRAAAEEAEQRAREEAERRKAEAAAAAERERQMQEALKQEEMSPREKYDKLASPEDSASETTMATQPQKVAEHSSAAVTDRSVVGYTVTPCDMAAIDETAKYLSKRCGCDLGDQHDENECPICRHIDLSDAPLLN
Described as above.

Assay [4] has as its target GAP80Ty (second copy of GAP80 with a Ty tag, tubulin promoter) (Toxoplasma gondii). Described as above.
Assay [5] deals with KI-IAP1-3Ty (endogenous Ty-tagged full-length version of IAP1) (Toxoplasma gondii). The description is as above.
Assay [6] concerns the target T2, GAP45Ty (second copy of GAP45 with a Ty tag) (Toxoplasma gondii) (UniProt Q7Z289).
T2 sequence: T1 sequence
The description is as above.

The target of assay [7] is KI-GAP80Ty (GAP80 Ty-tagged at the endogenous locus) (Toxoplasma gondii). Briefly: co-IP; anti-Ty co-IP of tagged bait from Triton X-100 lysate of tachyzoites; elution fractions analysed by western blot (anti-MLC1, anti-MyoA, anti-GAP40, anti-GAP45, anti-MyoC).
Assay [8] has as its target KI-IAP1-3Ty (endogenous Ty-tagged full-length version of IAP1) (Toxoplasma gondii). The description is as above.

These are yes or no findings as the source states them, for the method shown. In cells and extracts the contact can be indirect. Some results given as binding are weak or reduced against the parent protein; the word gives no strength. For some of these results: Where a sequence is shown, tags or fusion partners need not be part of it.

“myosin heavy chain A (MyoA) (from UniProt O00934 1-831)”: the binding result in assay [1], in assay [2], in assay [3], in assay [4], in assay [5] and in assay [6] was “binds” throughout. The binding result in assay [7] is listed as “binds”.
Regarding GAP40 (from UniProt A0A125YP06 1-385), the binding result in assay [1], in assay [2], in assay [3], in assay [4], in assay [5] and in assay [6] was “binds” in each case. Besides, the binding result in assay [7] and in assay [8] was “binds” in each case.

B1: gliding-associated protein GAP45 (protein, UniProt Q7Z289 1-245)
chain: T1 sequence
Take B1: the binding result in assay [7] is given as “no binding”.

(Values after PMC4231161.)
